The list shows a part of the results. At the low end of the ranking the order means little.

This experiment addresses T1, GST-Rok-C97-191 (UniProt O34857).
T1 sequence: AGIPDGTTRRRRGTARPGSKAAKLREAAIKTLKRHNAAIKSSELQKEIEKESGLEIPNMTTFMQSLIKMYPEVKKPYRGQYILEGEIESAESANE
Put plainly: protein binding microarray.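 Also: rank score from −0.5 (least bound) to 0.5 (best bound).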 The following applies: Rok is a gene silencer of Bacillus subtilis; high values mean tight binding; most listed sequences are background and not binding sites; double strand, one strand shown.
Sequence GCTTTAAC returned a binding signal of -0.221 E-score.

ATTAGCGA: the binding signal was found to be 0.0906 E-score.

Turning to AAAGTTTA, the binding signal is -0.00556 E-score.

Turning to AATTTTAG, the binding signal stood at 0.259 E-score.

With GATGAGGC, the binding signal was -0.122 E-score.

As for ACATGAGG, the binding signal was -0.276 E-score.

Consider GGTGTACA, for which the binding signal stood at 0.021 E-score.

For the sequence CCGTTTAA, the binding signal is -0.0736 E-score.

CCGCCCGG: the binding signal was -0.348 E-score.

With GGAGCACC, the binding signal was -0.178 E-score.

Regarding AAGATACA, the binding signal stood at 0.151 E-score.

For CCAAGCAA, the binding signal was -0.115 E-score.

AGCAGTGA: the binding signal is -0.105 E-score.

CATTTTGA: the binding signal was found to be 0.182 E-score.

The sequence CAGTCTTA gave a binding signal of 0.0456 E-score.

In turn, CTCAAGCC registered a binding signal of -0.239 E-score.

As to AGAAGAAA, the binding signal was 0.00841 E-score.

Turning to AGTTTCGG, the binding signal came out at 0.102 E-score.

Turning to ACCATAAG, the binding signal came to 0.168 E-score.

Take CTGTGCAA: the binding signal is -0.0661 E-score.

ACTGTCGG registered a binding signal of 0.0846 E-score.

AGATGCTC showed a binding signal of -0.0199 E-score.

CCGTTGAG had a binding signal of -0.108 E-score.

AGCTGGGC had a binding signal of -0.305 E-score.

As for CTAGGCCA, the binding signal is -0.172 E-score.

In turn, CGTGAGAC returned a binding signal of -0.0975 E-score.

In turn, AATAAATG came in with a binding signal of 0.0669 E-score.

In turn, GGAGGTCA displayed a binding signal of -0.249 E-score.

TCAGTTCA displayed a binding signal of -0.0387 E-score.

Turning to CAATCCTC, the binding signal was -0.119 E-score.

In the case of AAGCAACA, the binding signal is -0.0329 E-score.

On to AGACAGGA, for which the binding signal was -0.221 E-score.

ATCAATGG registered a binding signal of 0.0807 E-score.

As to ACAAAGGA, the binding signal was -0.0833 E-score.

Sequence ACACATAG gave a binding signal of 0.0608 E-score.

The sequence ATTCTCAA returned a binding signal of 0.108 E-score.

The sequence CCTCAAAC had a binding signal of -0.0736 E-score.

In the case of GGTTCTCA, the binding signal was determined as 0.034 E-score.

Sequence CGGCCACC returned a binding signal of -0.251 E-score.

In turn, CTGACTTA had a binding signal of 0.0769 E-score.

Take AGGTGGGG: the binding signal was -0.391 E-score.

With ACACCGGG, the binding signal is -0.255 E-score.

For GCTTGCCC, the binding signal is -0.33 E-score.

TGTCAAAA displayed a binding signal of -0.0694 E-score.

Turning to CAAGAGTC, the binding signal is -0.0784 E-score.

Turning to CCCCCGAG, the binding signal is -0.168 E-score.

As for ATTGAGCG, the binding signal is -0.0196 E-score.

CGCCGATA came in with a binding signal of 0.114 E-score.

Consider CTATAAAA, for which the binding signal is 0.229 E-score.

Turning to CGCTTTAG, the binding signal was -0.0482 E-score.

In the case of CACTTATC, the binding signal amounted to 0.189 E-score.

Take ATCTAGTG: the binding signal was 0.364 E-score.

Turning to ACTACCAT, the binding signal came out at 0.353 E-score.

ACATGGAA registered a binding signal of 0.124 E-score.

Regarding GGCTGATA, the binding signal was found to be 0.0294 E-score.

With CAGAATCC, the binding signal was -0.18 E-score.

AATGTTGG displayed a binding signal of 0.0745 E-score.

On to CCTCTTCG, for which the binding signal is -0.26 E-score.

ACCCTTCA: the binding signal is -0.0326 E-score.

GAATTCGC had a binding signal of -0.0316 E-score.

On to ACAGATCT, for which the binding signal is -0.1 E-score.

As for ACAGCATA, the binding signal is 0.0594 E-score.

On to ACTGTTAG, for which the binding signal amounted to 0.153 E-score.

In turn, CCTGTAAC showed a binding signal of 0.0647 E-score.

For CATACCCC, the binding signal is -0.105 E-score.

As to TCTTCTCA, the binding signal was -0.00941 E-score.

Sequence TTCGCGAA registered a binding signal of -0.11 E-score.

On to ACTGCTTA, for which the binding signal was found to be 0.184 E-score.

AAGAAGTG showed a binding signal of 0.201 E-score.

As for GATACGTA, the binding signal turned out to be 0.27 E-score.

CCCATAGA registered a binding signal of -0.00793 E-score.

The sequence ACGTGCAA came in with a binding signal of 0.0838 E-score.

As to CCATTAGA, the binding signal is -0.0474 E-score.

For the sequence AACCGTAC, the binding signal amounted to 0.0358 E-score.

The sequence AGGTGAAC gave a binding signal of -0.0702 E-score.

For GCCTAGTA, the binding signal came out at 0.00863 E-score.

ATATTCAA: the binding signal was found to be 0.081 E-score.

For AGGTCGCA, the binding signal was -0.255 E-score.

As for AGCTGCAA, the binding signal is 0.00509 E-score.

As for GACGTCAC, the binding signal is -0.118 E-score.

In turn, AGCGGTTA displayed a binding signal of -0.0632 E-score.

In turn, GAAAGCCC came in with a binding signal of -0.319 E-score.

For the sequence ACTTTGCG, the binding signal was 0.105 E-score.

Regarding CGGTGAAG, the binding signal was -0.0824 E-score.

For ATGTACTC, the binding signal stood at 0.178 E-score.

Sequence AGAGCTCG had a binding signal of -0.0322 E-score.

The sequence GATTGCCC registered a binding signal of -0.152 E-score.

For the sequence CACTTCAG, the binding signal was -0.0197 E-score.

Sequence CCTGGCCC showed a binding signal of -0.0879 E-score.

For CCTGTCTC, the binding signal is -0.194 E-score.

GAGCAGGA registered a binding signal of -0.378 E-score.

As for GATAAGCC, the binding signal amounted to 0.00512 E-score.

Turning to CCTAACCA, the binding signal is -0.22 E-score.

For AAAATTCC, the binding signal was -0.024 E-score.

Source of the values: PMC6212790.
